{"source": "the supplement of paper PMC8728848", "test_in_all_cases": "glycan array binding signal (z-score within array); higher = stronger binding", "details_in_all_cases": "glycan notation: IUPAC condensed, linker removed", "key": {"[1]": {"target": "Neu5Ac(a2-3)Gal(b1-3)GlcNAc(b1-3)Gal(b1-3)GlcNAc", "method_in_brief": "(§1)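 Glycan array binding is given as a within-array Z-score, which can be read as non-binding when negative. The arrays, 3228 of them, came from the Consortium for Functional Glycomics database and were retained only where the protein sequence was available. Z-scores were averaged across arrays of the same protein sequence at different concentrations or buffers and across linkers.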"}, "[2]": {"target": "Neu5Ac(a2-3)Gal(b1-3)GlcNAc(b1-3)Gal(b1-4)GlcNAc", "method_in_brief": "as §1"}, "[3]": {"target": "Neu5Ac(a2-3)Gal(b1-3)GlcNAc(b1-3)GalNAc", "method_in_brief": "as §1"}, "[4]": {"target": "Neu5Ac(a2-3)Gal(b1-3)GlcNAc6S", "method_in_brief": "as §1"}, "[5]": {"target": "Neu5Ac(a2-3)Gal(b1-3)[Fuc(a1-4)]GlcNAc", "method_in_brief": "as §1"}, "[6]": {"target": "Neu5Ac(a2-3)Gal(b1-3)[Fuc(a1-4)]GlcNAc(b1-3)Gal(b1-3)[Fuc(a1-4)]GlcNAc", "method_in_brief": "as §1"}, "[7]": {"target": "Neu5Ac(a2-3)Gal(b1-3)[Fuc(a1-4)]GlcNAc(b1-3)Gal(b1-4)[Fuc(a1-3)]GlcNAc", "method_in_brief": "as §1"}, "[8]": {"target": "Neu5Ac(a2-3)Gal(b1-3)[Neu5Ac(a2-3)Gal(b1-4)]GlcNAc", "method_in_brief": "as §1"}, "[9]": {"target": "Neu5Ac(a2-3)Gal(b1-3)[Neu5Ac(a2-6)]GalNAc", "method_in_brief": "as §1"}, "Neu5Ac(a2-3)Gal(b1-4)Glc": {"target": "Neu5Ac(a2-3)Gal(b1-4)Glc", "method_in_brief": "as §1"}, "[10]": {"target": "Neu5Ac(a2-3)Gal(b1-4)GlcNAc", "method_in_brief": "as §1"}, "[11]": {"target": "Neu5Ac(a2-3)Gal(b1-4)GlcNAc(b1-2)Man(a1-3)[GlcNAc(b1-2)Man(b1-4)GlcNAc(b1-2)Man(a1-6)]Man(b1-4)GlcNAc(b1-4)GlcNAc", "method_in_brief": "as §1"}, "[12]": {"target": "Neu5Ac(a2-3)Gal(b1-4)GlcNAc(b1-2)Man(a1-3)[Neu5Ac(a2-6)Gal(b1-4)GlcNAc(b1-2)Man(a1-6)]Man(b1-4)GlcNAc(b1-4)GlcNAc", "method_in_brief": "as §1"}, "[13]": {"target": "Neu5Ac(a2-3)Gal(b1-4)GlcNAc(b1-3)Gal(b1-3)GlcNAc", "method_in_brief": "as §1"}, "[14]": {"target": "Neu5Ac(a2-3)Gal(b1-4)GlcNAc(b1-3)Gal(b1-4)GlcNAc", "method_in_brief": "as §1"}, "[15]": {"target": "Neu5Ac(a2-3)Gal(b1-4)GlcNAc(b1-3)Gal(b1-4)GlcNAc(b1-3)Gal(b1-4)GlcNAc", "method_in_brief": "as §1"}, "[16]": {"target": "Neu5Ac(a2-3)Gal(b1-4)GlcNAc(b1-3)Gal(b1-4)[Fuc(a1-3)]GlcNAc", "method_in_brief": "as §1"}, "[17]": {"target": "Neu5Ac(a2-3)Gal(b1-4)GlcNAc(b1-3)GalNAc", "method_in_brief": "as §1"}, "[18]": {"target": "Neu5Ac(a2-3)Gal(b1-4)GlcNAc(b1-6)[Gal(b1-3)]GalNAc", "method_in_brief": "as §1"}, "[19]": {"target": "Neu5Ac(a2-3)Gal(b1-4)GlcNAc(b1-6)[Neu5Ac(a2-3)Gal(b1-3)]GalNAc", "method_in_brief": "as §1"}, "[20]": {"target": "Neu5Ac(a2-3)Gal(b1-4)GlcNAc6S", "method_in_brief": "as §1"}, "[21]": {"target": "Neu5Ac(a2-3)Gal(b1-4)[Fuc(a1-3)]GlcNAc", "method_in_brief": "as §1"}, "[22]": {"target": "Neu5Ac(a2-3)Gal(b1-4)[Fuc(a1-3)]GlcNAc(b1-3)Gal", "method_in_brief": "as §1"}, "[23]": {"target": "Neu5Ac(a2-3)Gal(b1-4)[Fuc(a1-3)]GlcNAc(b1-3)Gal(b1-4)GlcNAc", "method_in_brief": "as §1"}, "[24]": {"target": "Neu5Ac(a2-3)Gal(b1-4)[Fuc(a1-3)]GlcNAc(b1-3)Gal(b1-4)[Fuc(a1-3)]GlcNAc(b1-3)Gal(b1-4)[Fuc(a1-3)]GlcNAc", "method_in_brief": "as §1"}, "[25]": {"target": "Neu5Ac(a2-3)Gal(b1-4)[Fuc(a1-3)]GlcNAc(b1-3)GalNAc", "method_in_brief": "as §1"}, "[26]": {"target": "Neu5Ac(a2-3)Gal(b1-4)[Fuc(a1-3)]GlcNAc(b1-6)[Gal(b1-3)]GalNAc", "method_in_brief": "as §1"}, "[27]": {"target": "Neu5Ac(a2-3)Gal(b1-4)[Fuc(a1-3)]GlcNAc(b1-6)[Neu5Ac(a2-3)Gal(b1-3)]GalNAc", "method_in_brief": "as §1"}, "[28]": {"target": "Neu5Ac(a2-3)Gal(b1-4)[Fuc(a1-3)]GlcNAc6S", "method_in_brief": "as §1"}, "[29]": {"target": "Neu5Ac(a2-3)Gal6S(b1-4)GlcNAc", "method_in_brief": "as §1"}, "[30]": {"target": "Neu5Ac(a2-3)Gal6S(b1-4)[Fuc(a1-3)]GlcNAc", "method_in_brief": "as §1"}, "Neu5Ac(a2-3)GalNAc": {"target": "Neu5Ac(a2-3)GalNAc", "method_in_brief": "as §1"}, "[31]": {"target": "Neu5Ac(a2-3)GalNAc(b1-4)GlcNAc", "method_in_brief": "as §1"}, "[32]": {"target": "Neu5Ac(a2-3)[GalNAc(b1-4)]Gal(b1-4)Glc", "method_in_brief": "as §1"}, "[33]": {"target": "Neu5Ac(a2-3)[GalNAc(b1-4)]Gal(b1-4)GlcNAc", "method_in_brief": "as §1"}, "[34]": {"target": "Neu5Ac(a2-3)[GalNAc(b1-4)]Gal(b1-4)GlcNAc(b1-3)GalNAc", "method_in_brief": "as §1"}, "[35]": {"target": "Neu5Ac(a2-3)[Neu5Ac(a2-6)]GalNAc", "method_in_brief": "as §1"}, "Neu5Ac(a2-6)Gal": {"target": "Neu5Ac(a2-6)Gal", "method_in_brief": "as §1"}, "Neu5Ac(a2-6)Gal(b1-4)Glc": {"target": "Neu5Ac(a2-6)Gal(b1-4)Glc", "method_in_brief": "as §1"}, "[36]": {"target": "Neu5Ac(a2-6)Gal(b1-4)GlcNAc", "method_in_brief": "as §1"}}, "note": "Some of the results follow."}
{"binder": "Pp2-A2 (Arabidopsis thaliana), Q07098 (protein) MPSNGDLDRQIEQLMECKPLSEADVRTLCDQARAILVEEYNVQPVKCPVTVCGDIHGQFYDLIELFRIGGNAPDTNYLFMGDYVDRGYYSVETVSLLVALKVRYRDRLTILRGNHESRQITQVYGFYDECLRKYGNANVWKYFTDLFDYLPLTALIESQVFCLHGGLSPSLDTLDNIRSLDRIQEVPHEGPMCDLLWSDPDDRCGWGISPRGAGYTFGQDIAAQFNHNNGLSLISRAHQLVMEGFNWCQDKNVVTVFSAPNYCYRCGNMAAILEIGENMEQNFLQFDPAPRQVEPDTTRKTPDYFL", "values": [{"measurement": "glycan array binding signal (z-score)", "setting": "[1]", "result": 0.247}, {"measurement": "glycan array binding signal (z-score)", "setting": "[2]", "result": -0.454}, {"measurement": "glycan array binding signal (z-score)", "setting": "[3]", "result": -0.355}, {"measurement": "glycan array binding signal (z-score)", "setting": "[4]", "result": 0.472}, {"measurement": "glycan array binding signal (z-score)", "setting": "[5]", "result": -0.63}, {"measurement": "glycan array binding signal (z-score)", "setting": "[6]", "result": 0.149}, {"measurement": "glycan array binding signal (z-score)", "setting": "[7]", "result": 0.82}, {"measurement": "glycan array binding signal (z-score)", "setting": "[8]", "result": 0.233}, {"measurement": "glycan array binding signal (z-score)", "setting": "[9]", "result": 0.589}, {"measurement": "glycan array binding signal (z-score)", "setting": "Neu5Ac(a2-3)Gal(b1-4)Glc", "result": 0.278}, {"measurement": "glycan array binding signal (z-score)", "setting": "[10]", "result": -0.425}, {"measurement": "glycan array binding signal (z-score)", "setting": "[11]", "result": -0.664}, {"measurement": "glycan array binding signal (z-score)", "setting": "[12]", "result": -0.66}, {"measurement": "glycan array binding signal (z-score)", "setting": "[13]", "result": 0.119}, {"measurement": "glycan array binding signal (z-score)", "setting": "[14]", "result": -0.099}, {"measurement": "glycan array binding signal (z-score)", "setting": "[15]", "result": -0.341}, {"measurement": "glycan array binding signal (z-score)", "setting": "[16]", "result": -0.037}, {"measurement": "glycan array binding signal (z-score)", "setting": "[17]", "result": -0.617}, {"measurement": "glycan array binding signal (z-score)", "setting": "[18]", "result": -0.77}, {"measurement": "glycan array binding signal (z-score)", "setting": "[19]", "result": -0.303}, {"measurement": "glycan array binding signal (z-score)", "setting": "[20]", "result": 0.606}, {"measurement": "glycan array binding signal (z-score)", "setting": "[21]", "result": 0.049}, {"measurement": "glycan array binding signal (z-score)", "setting": "[22]", "result": -0.398}, {"measurement": "glycan array binding signal (z-score)", "setting": "[23]", "result": 1.57}, {"measurement": "glycan array binding signal (z-score)", "setting": "[24]", "result": 0.136}, {"measurement": "glycan array binding signal (z-score)", "setting": "[25]", "result": 4.64}, {"measurement": "glycan array binding signal (z-score)", "setting": "[26]", "result": 1.98}, {"measurement": "glycan array binding signal (z-score)", "setting": "[27]", "result": 1.98}, {"measurement": "glycan array binding signal (z-score)", "setting": "[28]", "result": -0.315}, {"measurement": "glycan array binding signal (z-score)", "setting": "[29]", "result": 0.103}, {"measurement": "glycan array binding signal (z-score)", "setting": "[30]", "result": 0.82}, {"measurement": "glycan array binding signal (z-score)", "setting": "Neu5Ac(a2-3)GalNAc", "result": -0.344}, {"measurement": "glycan array binding signal (z-score)", "setting": "[31]", "result": -0.716}, {"measurement": "glycan array binding signal (z-score)", "setting": "[32]", "result": -0.213}, {"measurement": "glycan array binding signal (z-score)", "setting": "[33]", "result": -0.215}, {"measurement": "glycan array binding signal (z-score)", "setting": "[34]", "result": 0.827}, {"measurement": "glycan array binding signal (z-score)", "setting": "[35]", "result": -0.272}, {"measurement": "glycan array binding signal (z-score)", "setting": "Neu5Ac(a2-6)Gal", "result": -0.338}, {"measurement": "glycan array binding signal (z-score)", "setting": "Neu5Ac(a2-6)Gal(b1-4)Glc", "result": -0.148}, {"measurement": "glycan array binding signal (z-score)", "setting": "[36]", "result": -0.266}]}
